Reference: the RNAGym collection of RNA variant scans (doi:10.1073/pnas.2313332121)
Variants at the background level are over-represented here.

B1: TPR 5TU (parent)
chain: GGAUCUUCUCGAUCUAACAAAAAAGACAAAUCUGCCACAAAGCUUGAGAGCAUCUUCGGAUGCAGAGGCGGCAGCCUUCGGUGGCGCGAUAGCGCCAACGUUCUCAACUAUGACACGCAAAACGCGUGCUCCGUUGAAUGGAGUUUAUCAUG

Variants of: B1
Experiment: polymerase ribozyme fitness, log enrichment relative to wild type (log ratio); higher = more active; in vitro selection for triplet polymerase activity
In short: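 Both subunits of a heterodimeric triplet polymerase ribozyme were given their own mutant library, built by PCR and transcribed. Each library was annealed with a biotinylated primer, the partner subunit and triplets, incubated frozen at −7 °C, and its extended constructs gel-excised, captured on streptavidin beads and amplified by RT-PCR, all in one round done in triplicate. Fitness is the logarithm of genotype enrichment relative to wild-type enrichment, with replicates averaged by inverse-variance weighting. That logarithm is base 2, and Illumina-sequenced genotypes needed ≥10 input reads and ≥1 read per output.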

Variant	polymerase ribozyme fitness (log ratio)
A41C C57U U82C G141A	-1.09
A41C C63A U77A C95U U127G G136U U144C	≤ -4.2
A41C C63U G67A C69U G94C G117A G124A U139G	≤ -4.2
A41C C69A U102A C118U	≤ -4.2
A41C C72U A138G	≤ -4.2
A41C C76G A115G C118U	≤ -4.2
A41C C85U C96A U101C G126A G152U	≤ -4.2
A41C C85U U90C G140A A147G	≤ -4.2
A41C C87A A107U	≤ -4.2
A41C C87G C114U	≤ -4.2
A41C C87G G126A	≤ -4.2
A41C C87U C93G G133A	≤ -4.2
A41C C93A A110U	≤ -4.2
A41C C96A U146A	-0.97
A41C C96G C105U A106C G140U	≤ -4.2
A41C C132A	-2.55
A41C G42C G62A G67C	≤ -4.2
A41C G42U C79G G80C C116U	≤ -4.2
A41C G46C U101A G117A U148A	≤ -4.2
A41C G46U U55G A64G G67C G70U U109C C149G	≤ -4.2
A41C G48C C57G U101G	≤ -4.2

Variant	polymerase ribozyme fitness (log ratio)
A41C G48C C75U	≤ -4.2
A41C G48C G80C C116A G133A A138U U145C	≤ -4.2
A41C G48C U56A A89C C103U	-2.34
A41C G50U C85A C95U G136U U148C	≤ -4.2
A41C G50U C95U A98G U101A C118A A142U	≤ -4.2
A41C G59A U61G A91G	≤ -4.2
A41C G62C G83C G94U C116U A120U U146A	≤ -4.2
A41C G67A G83C G128C U139G	≤ -4.2
A41C G67A U90G C103A	≤ -4.2
A41C G68C U102G C118A A137G U144A	≤ -4.2
A41C G68U G84C	≤ -4.2
A41C G70C G94C C125U G143A	≤ -4.2
A41C G71U C87U	≤ -4.2
A41C G74A A91G C93U G141U	≤ -4.2
A41C G84A	-0.601
A41C G86U C123U	-2.13
A41C G88U	≤ -4.2
A41C G88U A91U	≤ -4.2
A41C G92U	-1.08
A41C G100A	≤ -4.2
A41C G143A	-1.42

Variant	polymerase ribozyme fitness (log ratio)
A41C G143C	-2.56
A41C U44A C96G	≤ -4.2
A41C U45A G59A A73U C79U	≤ -4.2
A41C U45G C69A C87A G94A A121C	≤ -4.2
A41C U45G G140C U146A	≤ -4.2
A41C U53A G68U G88C	≤ -4.2
A41C U53A U135A	-1.07
A41C U53C C57U C87G A98U	≤ -4.2
A41C U53C G65C A97C	≤ -4.2
A41C U53G U109C A147U	≤ -4.2
A41C U55A C75U A113G	≤ -4.2
A41C U55G C69A G94C C132U G133U	≤ -4.2
A41C U55G G83C C85A C93U	≤ -4.2
A41C U55G G86U U101G C132U G143C	≤ -4.2
A41C U56A G62U G84A G133U	≤ -4.2
A41C U61A A73U A107G	≤ -4.2
A41C U78G C85U C87U U127A U139C U151C	≤ -4.2
A41C U101G	-0.344
A41C U102A	-1.07
A41C U127G G136U G141U	≤ -4.2
A41C U135C	-3.55

Variant	polymerase ribozyme fitness (log ratio)
A41C U139G A150C	≤ -4.2
A41C U144C A147U	-0.619
A41G A47C G50A C57U C95U A107G U130G	≤ -4.2
A41G A47C G81C	-0.0928
A41G A49C A89G C108U	≤ -4.2
A41G A49C U55C A97G	≤ -4.2
A41G A52G G65U U101G	≤ -4.2
A41G A52U C75A G83A A113U U148A	≤ -4.2
A41G A60C G94C C116U G124A	≤ -4.2
A41G A66C G71C C93G U144C U151G	≤ -4.2
A41G A73U U78A G94U U135G	≤ -4.2
A41G A89G G92U G100A G117C G133A G143U	≤ -4.2
A41G A89G U102G A106C	≤ -4.2
A41G A97G C149A	≤ -4.2
A41G C54G G86C A122G	≤ -4.2
A41G C57U C85U C116U	0.221
A41G C57U U61A A120U G140A	≤ -4.2
A41G C69A G74C C93U A113C	≤ -4.2
A41G C69A U77G A115U	≤ -4.2
A41G C75U C93G	-2.6
